Article PMC4336329 (PLoS ONE, 2015)
In all, about 310,000 compounds went through this assay and about 14,000 (4.5%) showed an effect of 50% or more. The effect is printed as a negative number. The list shows a part of the results.

Molecular target: human ether-à-go-go-related gene (hERG) potassium channel (human, UniProt Q12809)
Test: primary screen, population patch clamp on CHO cells stably expressing hERG
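Further: peak tail current of the secondary pulse compared with the same well before compound.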

human ether-à-go-go-related gene (hERG) potassium channel, sequence (Q12809 whole entry, looked up): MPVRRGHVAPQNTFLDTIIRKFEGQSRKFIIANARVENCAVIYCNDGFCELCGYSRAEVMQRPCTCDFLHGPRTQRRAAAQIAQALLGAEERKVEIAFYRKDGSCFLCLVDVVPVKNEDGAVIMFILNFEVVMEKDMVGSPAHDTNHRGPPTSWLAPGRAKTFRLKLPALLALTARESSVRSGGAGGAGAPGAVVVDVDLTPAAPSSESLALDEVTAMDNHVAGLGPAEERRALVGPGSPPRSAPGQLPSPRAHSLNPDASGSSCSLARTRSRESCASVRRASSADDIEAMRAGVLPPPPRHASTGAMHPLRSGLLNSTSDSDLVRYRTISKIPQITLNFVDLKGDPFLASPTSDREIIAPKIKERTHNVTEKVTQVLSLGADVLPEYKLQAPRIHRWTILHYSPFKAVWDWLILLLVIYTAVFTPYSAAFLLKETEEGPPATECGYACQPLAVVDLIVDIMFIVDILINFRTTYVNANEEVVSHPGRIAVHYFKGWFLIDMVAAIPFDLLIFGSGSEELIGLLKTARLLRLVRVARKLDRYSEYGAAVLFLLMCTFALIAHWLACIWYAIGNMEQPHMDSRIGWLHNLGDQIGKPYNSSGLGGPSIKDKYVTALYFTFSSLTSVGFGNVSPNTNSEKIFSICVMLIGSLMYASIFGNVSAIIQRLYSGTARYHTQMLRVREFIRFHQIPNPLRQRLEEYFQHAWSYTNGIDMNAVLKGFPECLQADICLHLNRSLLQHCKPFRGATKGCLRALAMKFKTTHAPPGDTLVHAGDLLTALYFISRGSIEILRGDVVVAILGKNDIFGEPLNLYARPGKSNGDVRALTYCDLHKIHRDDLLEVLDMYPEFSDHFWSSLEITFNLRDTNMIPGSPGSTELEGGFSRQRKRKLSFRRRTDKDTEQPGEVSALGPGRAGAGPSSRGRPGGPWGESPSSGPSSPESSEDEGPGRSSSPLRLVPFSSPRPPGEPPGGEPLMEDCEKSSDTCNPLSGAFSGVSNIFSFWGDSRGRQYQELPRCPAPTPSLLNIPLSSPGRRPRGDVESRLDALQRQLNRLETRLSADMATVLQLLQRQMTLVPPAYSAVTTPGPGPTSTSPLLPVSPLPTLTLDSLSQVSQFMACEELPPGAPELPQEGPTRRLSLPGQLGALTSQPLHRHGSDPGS

SMILES	hERG current change (%, negative = inhibition) at 10uM [%]
Cc1ccc(/C(O)=C/c2nc3cc(C)ccc3oc2=O)cc1	6.31
O=C(NCc1ccccc1)c1cccc(OCC(=O)N2CCN(C(=O)c3ccco3)CC2)c1	-41.1
CCOC(=O)c1ccc(NC(=O)CSc2nnc(COc3ccccc3OC)n2C)cc1	-7.45
Clc1nccc(NCc2ccccc2)n1	15.3
COc1ccc(N2CCN(C(=O)CN(Cc3ccc(Cl)cc3)S(C)(=O)=O)CC2)cc1	-20.1
C=C(C)C1Cc2cc3ccc(=O)oc3cc2O1 (stereo not drawn)	-9.43
Cl.OCCNc1nc2ccccc2n1CCN1CCCCC1	-30.4
COCc1cc(C2SCC(=O)Nc3c2c(=O)[nH]n3C(C)C)ccc1OC (stereo not drawn)	3.23
CCOC(=O)C1=C(C)N=c2s/c(=C/c3ccccc3)c(=O)n2C1c1ccc(OC)c(OC)c1 (stereo not drawn)	1.03
COCCCNC(=O)c1sc2ncn(CC(=O)Nc3ccc(C)c(Cl)c3)c(=O)c2c1C	-6.07
Cc1ccccc1NC(NC(=O)c1cccs1)C(Cl)(Cl)Cl (stereo not drawn)	11.4
CC1(C)Cc2c(cnn2-c2cccc(F)c2)C(NC(=O)CSc2ccccn2)C1 (stereo not drawn)	-20.6
COc1ccc(-c2[nH]n(-c3ccc([N+](=O)[O-])cc3)c(=O)c2C=NCc2ccccc2)cc1	3.2
CN(Cc1ccccc1)C(=O)C1CCN(S(=O)(=O)c2cc([N+](=O)[O-])ccc2Cl)CC1	-54.6
CCCOc1ccc(/C=N/NC(=O)CSc2ccccn2)cc1OC	-10.2
O=[N+]([O-])c1ccc(N2CCNCC2)cc1NCc1cccnc1	-8.35
CC(Oc1ccc2c3c(c(=O)oc2c1)CCC3)C(=O)NCCN1CCOCC1 (stereo not drawn)	23
O=C(CCS(=O)(=O)c1ccccc1)Nc1ccc(S(=O)(=O)Nc2ncccn2)cc1	19.3
NNC(=S)NC1CCCCCCCCCCC1	-31.2
O=C(Cn1c(=O)oc2cc(S(=O)(=O)N3CCc4ccccc43)ccc21)N1CCCCC1	-7.38
CCOC(=O)c1nnn(-c2nonc2N)c1C	7.69
Cc1cc(C(=O)COC(=O)C23CC4CC(CC(O)(C4)C2)C3)c(C)n1-c1c(C)n(C)n(-c2ccccc2)c1=O	6.29

SMILES	hERG current change (%, negative = inhibition) at 10uM [%]
O=C(N/N=C/c1cccc([N+](=O)[O-])c1)C(=O)N1CCCCCC1	-52.5
CCN(CCn1cccn1)C(=O)CCc1nnc(-c2ccc3c(c2)OCO3)o1	-5.68
N#CCCN(CCC#N)c1nnc(-c2ccccc2)s1	-5.98
COc1cccc2[nH]c(C(=O)NCCc3ccccc3)cc12	6.83
O=C1CC(c2cccc(Br)c2)C2=C(COC2=O)N1 (stereo not drawn)	23.8
C=CCn1c(=O)/c(=C/c2ccc(C)o2)s/c1=C(/C#N)C(=O)c1ccccc1	12.2
Cc1nnc(C)n1/N=C/c1cc(Br)ccc1O	9.86
CN(NS(=O)(=O)c1ccc(Cl)cc1)c1cnn(C)c(=O)c1Cl	13.2
CCOC(=O)C1=NNC2(c3ccc(C)cc3)C(=O)N(c3ccccc3)C(=O)C12 (stereo not drawn)	2.65
O=C(NCc1ccc2c(c1)OCO2)c1nn2cccnc2c1Cl	-3.65
Cc1ccc(C(=O)Nc2ccc(N3CCOCC3)c3nonc23)cc1[N+](=O)[O-]	5.58
O=c1c2ccccc2nc(-c2ccccc2)n1Cc1ccco1	-30.5
CCOn1c(=O)c(-c2cc3ccccc3o2)[n+]([O-])c2ccccc21	4.12
Cc1cc(C(=O)N/N=C/c2cc(Br)cc(Br)c2OC(=O)c2cccc(F)c2)n[nH]1	25.5
O=C(CSc1n[nH]c(-c2ccccc2)n1)Nc1ncc(Br)cc1Br	-21.8
CCC1CCCCN1C(=O)CNCC1CCCO1.Cl (stereo not drawn)	2.47
OCc1ccccc1N=Cc1cccnc1	6.56
CC1OC(Nc2ccc(N=Nc3ccccc3)cc2)C(O)C(O)C1O (stereo not drawn)	12
CCN(C(=O)CSc1nnc(Cn2nnc3ccccc32)o1)c1nc(-c2ccccc2)cs1	-6.33
CCc1nn2c(=O)c(S(=O)(=O)Nc3ccccc3)c(C)nc2s1	-5.23
Clc1nnc(Cl)c2c1ncn2Cc1ccccc1	15
CC1=C(C(=O)OCc2ccccc2)C(c2ccc(C#N)cc2)NC(=O)N1CCCC(=O)O (stereo not drawn)	10.9

SMILES	hERG current change (%, negative = inhibition) at 10uM [%]
CC(=O)c1c[nH]c(C(=O)Nc2ccc(N3CCCCCC3)cc2)c1	-4.77
CCc1nnc(NC(=O)CSc2nnc(-c3ccncc3)n2C)s1	9.6
Cc1ccccc1C(=O)NC(=S)NCCN1CCOCC1	-2.77
COc1ccc(/C=C2\CCc3c2nc2ccccc2c3C(=O)O)cc1OC	-6.74
Cc1nn(CCOc2ccccc2)c(=O)n1-c1ccc(Cl)cc1	-3.66
Cc1ccc(N/C(=C\C(=O)c2ccccc2)C(=O)O)cc1	-11.6
CCc1ccc(NC(=O)CSc2nnc(CNC(=O)c3ccco3)o2)cc1	-14.5
COc1ccc(C2(C(=O)NCC3CCCO3)CCOCC2)cc1 (stereo not drawn)	5.22
COC(=O)C1=C(C)N(C)C(=O)NC1c1cc2c(cc1Br)OCO2 (stereo not drawn)	13.3
CCOC(=O)c1cnc(SCC(=O)Nc2nc(C)c(C)s2)nc1N	-61.9
O=C(Cc1ccc([N+](=O)[O-])cc1)OCc1ccc([N+](=O)[O-])cc1	19.2
O=C1COc2ccc(NC(=O)c3ccccc3C(=O)O)cc2N1	21.6
CCCNC(=O)c1ccc(N2CCC3(CC2)CC(c2ccccc2)=NO3)c(N)c1	-7.96
N#Cc1cccc(NC(=O)c2ccc(S(=O)(=O)N3CCOCC3)cc2)c1	-28.7
Cc1c(C(=O)N2CCCCC2)sc(NC(=O)C(C)C)c1C#N	3.51
Cc1nnsc1S(=O)c1ccc(Cl)cc1 (stereo not drawn)	6.12
O=C(c1ccccc1Cl)N(Cc1ccc(Cl)c(Cl)c1)N1C(=O)CCCC1=O	-6.37
COc1cc(CC(=O)Nc2ccc(S(=O)(=O)NC3=NCCCCC3)cc2)cc(OC)c1OC	14
CSCCOC(=O)COc1ccc(/C=N/NC(=O)c2nn(C)cc2Cl)cc1	-38.4
O=C(CSCc1ccccc1Cl)N1CCN(c2ccccn2)CC1	-19.2
CCOc1ccc(N2C(=O)CC(n3nc(C)cc3C)C2=O)cc1 (stereo not drawn)	1.62
C/C(=N\Nc1nncc2ccccc12)c1ccc(OCC(=O)N(C)C)cc1	8.27

SMILES	hERG current change (%, negative = inhibition) at 10uM [%]
CCOC(=O)COC(=O)c1ccc(O)cc1	4.03
CC1CSc2n(-c3cccc(C(F)(F)F)c3)cc(-c3ccccc3)[n+]21.[Br-] (stereo not drawn)	-35.7
COc1cccc(NC(=O)c2ccc3nc(C)sc3c2)c1	4.64
CCC(C)NC(=O)CCC(=O)Nc1ccc2nc(N3CCOCC3)cc(C)c2c1 (stereo not drawn)	2.55
CCc1noc(C)c1C(=O)OCC(=O)c1ccc(OC)c(OC)c1	-5.3
COc1cccc(NC(=S)N(CCN(C)C)C(C)c2ccncc2)c1 (stereo not drawn)	-34.3
CN(Cc1ccccc1)c1ccc(C(CC(N)=O)NC(=O)Cc2cccc3ccccc23)cc1[N+](=O)[O-] (stereo not drawn)	-16.6
Cc1sc(NC(=O)c2ccco2)c(C(c2cccnc2)N2CCC(C)CC2)c1C (stereo not drawn)	8.45
O=C(O)c1cc(-c2cc(C(=O)O)c3ccccc3n2)nc2ccccc12	25.5
COc1ccc(CCNC(=O)CCN2C(=O)C(C)Oc3ccc(C)cc32)cc1OC (stereo not drawn)	-6.21
O=C(COC(=O)c1ccc(S(=O)(=O)Nc2ccccc2)cc1)NCCC1=CCCCC1	5.94
Cc1ccc(SCc2cc(=O)[nH]c(/N=C(\N)Nc3cccc4ccccc34)n2)cc1	8.66
Cc1ccc(NC(=S)NCCN(C2CCCCC2)C2CCCC2)cc1C	-68.1
CC(C)OC(=O)CCNc1n[nH]c(=O)[nH]c1=O	4.19
O=C(Sc1nnnn1C1CCCCC1)c1cccs1	11.1
Cn1ccc(C(=O)OCC(=O)Nc2cccc(Cl)c2)n1	-1.53
COc1ccc(OC)c(N2C(N)=NC(N)=NC23CCCC3)c1.Cl	24.4
Cn1nnnc1SCCNC(=O)C1CCC(=O)N(CCc2cccc(F)c2)C1 (stereo not drawn)	18
Cc1ccc2c(c1)C(c1ccccc1)N(C(=O)c1ccc3c(c1)OCO3)CC(=O)N2 (stereo not drawn)	-39.5
Cc1ccc(NC(=O)CSc2nnc3ccc(-c4cccnc4)nn23)cc1	-49.3
CC(C)(C)OC(=O)NCCCC[C@H](NC(=O)c1nc[nH]c1C(=O)N1CCN(C(=O)OC(C)(C)C)CC1)C(=O)OC(C)(C)C	14.7
